Reference: PubChem BioAssay AID504706 (National Center for Advancing Translational Sciences (NCATS), 2011)
The whole screen tested about 320,000 compounds, of which about 200 (0.062%) were called active. Inconclusive results, whose numbers are uncertain, are shown with a selection of clear calls. Calls come from the whole dose curve; as a rule, active = well fitted activation curve with a large enough effect; inconclusive = small, poorly fitted or top-dose-only effect; inactive = no such curve, though single readings can be large or run the other way. Potencies of inconclusive entries are left out as doubtful fits.

Assay: qHTS assay for re-activators of p53 using a Luc reporter; note: nearly all actives have a fitted effect of over 45% in size
Settings: H1299 p53-A138V BP100-luciferase reporter, luminescence, 24 h; series mostly up to 92.2 µM
In short: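 p53-null H1299 cells stably carrying temperature-sensitive p53-A138V and a BP100-luciferase reporter were pinned with compounds (4-point, 1:5 series) and held 24 hrs at 37 deg C. Luminescence was read 10 min after detection reagent.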
Potency is the fitted concentration of half-maximal effect; tags give direction and shape of the fitted curve.

Row | SMILES | Potency
1 | COc1ccc(N/C=C/C(=O)c2ccc(Cl)cc2)cc1 | inconclusive [activator, partial curve, poor fit]
2 | COc1cc(C(=O)N2CCCCCCC2)ccc1OC1CCN(C(C)=O)CC1 | inconclusive [activator, partial curve, poor fit]
3 | O=C1c2ccccc2NC(c2ccc(-c3cccc(Cl)c3)o2)N1O (centres undefined) | inconclusive [activator, single point]
4 | O=C(COC(=O)c1ccccc1Br)NC1CCCCCCC1 | inconclusive [activator, partial curve, poor fit]
5 | O=C1c2ccccc2COc2ccc(O)cc21 | inactive
6 | COc1ccc(NC(=O)c2csc(Cc3ccccc3)n2)cc1 | inconclusive [activator, partial curve, poor fit]
7 | CN1CCN(c2ccc(C(=O)c3ccccc3)cc2[N+](=O)[O-])CC1 | inconclusive [activator, single point]
8 | COc1ccc(NC(=O)c2ccc3c(c2)NC(=O)CS3)cc1 | inconclusive [activator, partial curve, poor fit]
9 | CN(C)c1ccccc1C(=O)c1ccccc1N(C)C | inconclusive [activator, partial curve, poor fit]
10 | O=C(Nc1cnc2sc3c(n2c1=O)CCCC3)c1ccc(F)cc1 | inconclusive [activator, partial curve, poor fit]
11 | COc1cccc(CC(=O)Nc2nc(-c3cc(OC)ccc3OC)cs2)c1 | inactive
12 | CCCOc1cccc(C(=O)Nc2nnn(CCC)n2)c1 | inconclusive [activator, single point]
13 | Cc1ccc2nc3cc([N+](=O)[O-])cc([N+](=O)[O-])c3cc2c1 | inconclusive [activator, single point]
14 | CC(=O)Nc1ccc(Nc2nnc(-c3ccc(O)cc3)c3ccccc23)cc1 | inconclusive [activator, single point]
15 | Cc1ccnc(NC(=O)CN2C(=O)NC(C)(c3ccc4ccccc4c3)C2=O)c1 (centres undefined) | inactive
16 | Cc1ccc(NC(=O)CCc2c(C)nn(-c3ccc(N4CCOCC4)nn3)c2C)cc1F | inactive
17 | COCCCNC(=O)c1ccc(CS(=O)(=O)c2ccc(OC)cc2)o1 | inconclusive [activator, single point]
18 | CCN(CC(=O)Nc1ccc(NC(C)=O)cc1)C(=O)/C=C/c1ccco1 | inactive
19 | CCC(C)NC(=O)c1ccc(CSCc2ccccc2Cl)o1 (centres undefined) | inactive
20 | O=C(Nc1ccc(N2CCOCC2)c(Cl)c1)c1ccc(F)cc1 | inconclusive [activator, full curve, poor fit]
21 | CCn1c(-c2cc(-c3ccc(C)cc3)nc3ccccc23)n[nH]c1=S | inactive
22 | CCOc1ccc(NC(=O)CSc2nc(-c3cccs3)cc(C(F)(F)F)n2)c([N+](=O)[O-])c1 | inactive

Row | SMILES | Potency
23 | COc1ccccc1CNC(=O)c1cc(=O)c2ccccc2o1 | inconclusive [activator, single point]
24 | O=C(Nc1ccc(F)cc1)N1CCOCC1 | inactive
25 | N#Cc1c(C(F)(F)F)cc(-c2ccccc2)nc1SCc1nc(N)nc(N2CCOCC2)n1 | inactive
26 | Cc1cc(C(=O)O)cc(S(=O)(=O)Nc2ccccc2C(=O)NC(C)c2ccccc2)c1C (centres undefined) | inconclusive [activator, single point]
27 | COc1ccc(N/C=C/C(=O)C(C)(C)C)cc1 | inactive
28 | Cc1ccc(C(=O)c2sc3nsc(C)c3c2N)cc1 | inconclusive [activator, full curve, poor fit]
29 | COc1ccc(C(=S)NC2CCCCC2)cc1 | inconclusive [activator, single point]
30 | N=C1/C(=C/c2ccc(OCc3ccccc3F)cc2)C(=O)N=C2SC(CC(=O)N3CCOCC3)=NN12 | inconclusive [activator, partial curve, poor fit]
31 | O=C(Nc1ccc(F)cc1)c1ccc2nc[nH]c2c1 | inactive
32 | CC(=O)Oc1ccc(C(=O)Nc2cccc(C(=O)c3ccc(C)c(C)c3)c2)cc1 | inactive
33 | Cc1ccc(C2NC(=O)c3c(sc(C)c3C)N2)c(O)c1 (centres undefined) | inconclusive [activator, single point]
34 | O=C(Nc1nnc(SCC(=O)N2CCOCC2)s1)c1ccccc1Cl | inconclusive [activator, single point]
35 | CCOc1ccc(C(=O)/C=C/Nc2ccc(S(=O)(=O)Nc3onc(C)c3C)cc2)cc1 | inactive
36 | COc1cc(/C=N/Nc2nc3ccccc3[nH]2)ccc1O | inconclusive [activator, partial curve, poor fit]
37 | Clc1ccc(-n2nnc(-c3cccnc3Cl)n2)cn1 | inactive
38 | Cc1cccn2c(NC(=O)c3ccccc3F)c(-c3ccccc3)nc12 | inactive
39 | COc1ccccc1C(=O)COC(=O)c1cccc(-n2cnnn2)c1 | inconclusive [activator, full curve, poor fit]
40 | Cc1ccc(N2C(=O)C3C4C=CC(CNC(=S)Nc5ccc(F)cc5)(O4)C3C2=O)cc1 (centres undefined) | inconclusive [activator, single point]
41 | CCOc1nc(NCCC2=CCCCC2)nc(N2CCOCC2)n1 | inactive
42 | COc1ccc(NC(=O)/C(Cl)=C(/Cl)S(=O)Cc2ccccc2)cn1 (centres undefined) | inactive
43 | CC1CN(CCC(=O)Nc2ccc3c(c2)OCO3)CC(C)O1 (centres undefined) | inconclusive [activator, single point]
44 | COc1ccc2[nH]cc(C(=O)CN3CCC(C)CC3)c2c1 | inconclusive [activator, partial curve, poor fit]
